In all, about 52,000 compounds went through this assay and about 1,700 (3.3%) were called active. Rule as the data show it: active = survival mostly below about 52% (no sharp cut-off); inactive = mostly above about 56%. The list shows a part of the results.
tested on: Wild type; assay: S. aureus survival, RN4220 and DeltatarO strains – OD600, teichoic acid synthesis inhibitors, primary screen (AID 463173); conditions: S. aureus RN4220 wild type/DeltatarO growth, OD600, 18 h, active compounds read low, screened at 18.75 µg/mL (by protocol)

Row | SMILES | survival
1 | Cc1nn(C(=O)c2cccc(F)c2)c(C)c1S(=O)(=O)N1CCOCC1 | inactive: 69%
2 | COc1ccc(CCNC(=O)c2cc3c(=O)oc4ccc(C)cc4c3s2)cc1OC | inactive: 93%
3 | COc1ccc(CC(=O)NC2CCN(CC(=O)c3ccc(F)cc3)CC2)cc1OC | inactive: 89%
4 | CCNC(=O)c1cc2n(n1)CCCN(Cc1ccc(C)cc1)C2=O | inactive: 22%
5 | O=C(CSc1nccn1Cc1ccc(F)cc1)NCc1ccc(F)cc1 | inactive: 73%
6 | COC(=O)/C=c1\sc2nc(N)nn2c1=O | inactive: 102%
7 | CN1CCN(C(=O)Cn2ncc3c4ccccc4n(Cc4ccc(Cl)cc4)c3c2=O)CC1 | inactive: 84%
8 | Cc1cc(C)c(NC(=O)c2c(C)nn(-c3ccc(F)cc3)c2-n2cccc2)c(C)c1 | inactive: 81%
9 | O=C(CCSCc1ccc(Cl)cc1)NCc1ccc(F)cc1Cl | inactive: 79%
10 | CS(=O)(=O)N1CCc2cc(C(=O)N3CCN(c4ccccc4F)CC3)ccc21 | inactive: 89%
11 | COc1ccc(Nc2cc(C(=O)NC3CCCC3)c3ccccc3n2)cc1 | inactive: 84%
12 | COc1ccc(C2C=C(c3ccc(Br)cc3)Nc3nnnn32)c(OC)c1 (configuration not stated) | inactive: 66%
13 | COc1ccccc1CNc1nc2c(S(=O)(=O)c3ccccc3)nnn2c2ccc(Cl)cc12 | inactive: 88%
14 | Cc1ccc(NC(=O)c2c(NC(=O)c3ccccc3Cl)sc3c2CCC3)cc1 | inactive: 129%
15 | O=C(NC1CCCCC1)c1ccc(CSc2nc3ccncc3n2Cc2ccc(F)cc2)cc1 | inactive: 77%
16 | CCc1nn2c(=O)c(S(=O)(=O)Nc3ccc(Br)cc3F)c(C)nc2s1 | inactive: 61%
17 | Cc1ccccc1NC(=O)Cn1nnc(C(=O)NCCc2ccccc2)c1N | inactive: 109%
18 | CC(C)C(=O)Nc1ccc(-c2cn3ccccc3n2)cc1 | inactive: 117%
19 | NC(=O)c1nn2c(C(F)(F)F)cc(-c3ccc(Br)cc3)nc2c1Cl | inactive: 88%

Row | SMILES | survival
20 | CC(=O)c1cccc(NC(=O)Cn2nc(C(F)(F)F)c3c2CCC3)c1 | inactive: 88%
21 | Cc1ccc2nc(Cl)c3cc(C(=O)NCCCN(C)Cc4ccccc4)sc3c2c1 | active: -3%
22 | c1coc(C2Nc3cccc4cccc(c34)N2)c1 | inactive: 116%
23 | O=C(Cn1c(C(=O)N(Cc2ccco2)CC2CCCO2)cc2sccc21)c1ccccc1 (configuration not stated) | inactive: 120%
24 | CSc1nc(=O)c2c(n1C)NC(=O)CC2c1cc(F)cc(F)c1 (configuration not stated) | inactive: 83%
25 | CC(=O)Nc1ccc(Oc2nc(C)cc(C)n2)cc1 | inactive: 111%
26 | Cc1ccc(C)c(N(C)C(=O)Cc2c(C(=O)O)[nH]c3ccc(Cl)cc23)c1 | inactive: 56%
27 | CC(C)(C)CC(C)(C)c1ccc(OCC(=O)Nc2ccc(S(=O)(=O)Nc3ncccn3)cc2)cc1 | inactive: 82%
28 | OC(CN1CCNCC1)Cn1c2ccccc2c2ccccc21 (configuration not stated) | inactive: 115%
29 | COc1ccc(C2C(C(=O)Nc3ccc(C)cc3C)=C(C)Nc3nc(SCc4cccc(C)c4)nn32)c(OC)c1 (configuration not stated) | inactive: 146%
30 | COc1ccc(N2CCN(S(=O)(=O)c3ccc(-c4cnc(C5CC5)o4)cc3)CC2)cc1 | inactive: 71%
31 | COc1cccc(CNC(=O)CN2C(=O)N(c3cccc(Cl)c3)S(=O)(=O)c3ccccc32)c1OC | inactive: 75%
32 | COc1ccccc1-c1nn2c(=O)cc(CN3CCN(C(=O)/C=C/c4ccccc4)CC3)nc2s1 | inactive: 74%
33 | CN(C)c1ccc(Nc2nc3ccccc3n3nnnc23)cc1 | inactive: 107%
34 | COc1ccccc1CNC(=O)CSc1nc(=O)[nH]c2c1CCC2 | inactive: 70%
35 | CC1=C(C(=O)Nc2ccc(C)cc2C)C(c2ccc(Br)cc2)n2ncc(C(=O)Nc3cccc(C)c3)c2N1 (configuration not stated) | inactive: 133%
36 | Cc1[nH]c2ccc(-c3nnc(SCC(=O)N4c5ccccc5CCc5ccccc54)o3)cc2c1C | inactive: 101%
37 | CCc1ccc(S(=O)(=O)NCc2nc3cccnc3n2Cc2cccc(OC)c2)cc1 | inactive: 72%
38 | CCCCCn1c(CNC(=O)c2ccccc2)nc2ccccc21 | inactive: 89%

Row | SMILES | survival
39 | CCOc1ccc(NC(=O)Cn2c(=O)n(CCCCC(=O)NCc3ccc4c(c3)OCO4)c(=O)c3ccccc32)cc1 | inactive: 112%
40 | CCN(CC)c1ccc(-n2nc3cc(C)c(NC(=O)c4ccccc4C)cc3n2)c(C)c1 | inactive: 95%
41 | Cc1ccccc1Cn1c(=O)n(CC2CCC(C(=O)N3CCOCC3)CC2)c(=O)c2sccc21 (configuration not stated) | inactive: 85%
42 | CCN(CC)S(=O)(=O)c1cccc(C(=O)Oc2cccnc2)c1 | inactive: 109%
43 | COc1ccc(S(=O)(=O)c2nnn(-c3ccc(C(C)C)cc3)c2C)cc1 | inactive: 78%
44 | Cc1c(Cl)cccc1Nc1nn2c(=O)c3ccc(C(=O)NCCC4=CCCCC4)cc3nc2s1 | inactive: 74%
45 | Cc1cc(C)c(S(=O)(=O)N2CCN(Cc3ccc4c(c3)OCO4)CC2)cc1C | active: 9%
46 | COc1ccc(CCNC(=O)Cc2c(C)c3cc4c(C)coc4cc3oc2=O)cc1OC | inactive: 102%
47 | CN(C(=O)c1cc2nc(-c3ccco3)cc(C(F)(F)F)n2n1)C12CC3CC(CC(C3)C1)C2 | inactive: 110%
48 | Cc1ccc(-n2c(=O)c3c(C)c(C)sc3n(Cc3ccc(F)cc3Cl)c2=O)cc1C | inactive: 60%
49 | CCOc1ccc(C2C(=O)N(C3CCCCC3)CC(=O)N2CCc2ccccc2)cc1OC (configuration not stated) | inactive: 117%
50 | COC(=O)CN(c1ccccc1Cl)S(C)(=O)=O | inactive: 105%
51 | Oc1ccc(-c2nc3ccc(Cl)cn3c2Nc2ccc3c(c2)OCO3)cc1 | inactive: 92%
52 | CC(=O)c1ccc(NC(=O)Cn2ncc3c4ccccc4n(Cc4ccccc4)c3c2=O)cc1 | inactive: 84%
53 | Cc1cc(C)c(NS(=O)(=O)c2ccc(-c3coc(C)n3)cc2)c(C)c1 | inactive: 67%
54 | COc1cc(C(=O)NCc2nc3cccnc3n2Cc2ccc(C)cc2)cc(OC)c1OC | inactive: 92%
55 | FC(F)(F)C(F)(F)C(F)(F)c1nnc2ccc(N3CCOCC3)nn12 | inactive: 103%
56 | O=C(NCc1ccc(Cl)cc1)C1CCN(S(=O)(=O)c2ccccc2)CC1 | inactive: 124%
57 | COc1ccc(N(C(=O)c2ccccc2)S(=O)(=O)c2ccc3c(c2)n(C)c(=O)n3C)cc1 | inactive: 72%

From PubChem BioAssay AID463173 (ICCB-Longwood Screening Facility, Harvard Medical School, 2010)
